# Assay results from PubChem BioAssay AID624417 (National Center for Advancing Translational Sciences (NCATS), 2012).
# Where “and” joins values, the source holds several entries; their conditions need not be identical. Identical values can stand only once. In all, about 410,000 compounds went through this assay and about 6,400 (1.6%) were called active. The shares of active, inactive and inconclusive entries below differ from those in the screen. Calls come from the whole dose curve; as a rule, active = well fitted inhibition curve with a large enough effect; inconclusive = small, poorly fitted or top-dose-only effect; inactive = no such curve, though single readings can be large or run the other way. Potencies beside an inconclusive call are fits to weak or partial responses and may not hold up.
# Biological target: Glucagon-like peptide 1 receptor (Homo sapiens) (UniProt P43220)
# Sequence of UniProt P43220 (P43220 whole entry, looked up): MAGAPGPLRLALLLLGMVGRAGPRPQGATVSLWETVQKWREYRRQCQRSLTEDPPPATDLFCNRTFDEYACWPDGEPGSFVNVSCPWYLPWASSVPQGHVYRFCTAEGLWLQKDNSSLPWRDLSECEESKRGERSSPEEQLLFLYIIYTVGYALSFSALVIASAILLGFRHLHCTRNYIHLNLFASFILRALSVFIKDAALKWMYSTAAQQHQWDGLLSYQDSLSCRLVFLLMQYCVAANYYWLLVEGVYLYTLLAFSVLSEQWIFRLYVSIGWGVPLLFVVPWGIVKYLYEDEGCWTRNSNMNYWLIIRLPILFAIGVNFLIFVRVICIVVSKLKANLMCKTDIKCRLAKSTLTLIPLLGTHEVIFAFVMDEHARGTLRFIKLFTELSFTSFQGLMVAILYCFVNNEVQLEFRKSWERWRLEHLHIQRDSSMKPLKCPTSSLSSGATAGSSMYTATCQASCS
# Experiment: qHTS of GLP-1 Receptor Inverse Agonists (Inhibition Mode); note: nearly all actives have a fitted effect of over 55% in size
# Conditions: HEK293 GLP-1R CRE-luciferase, luminescence, 24 h, GLP-1R form is constitutively active; activity change, negative = inhibition: at 38.3 µM (top of the series) unless noted
# Outline: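 Assay principle: reduced luminescence from a cAMP-responsive reporter in HEK293 cells co-expressing a constitutively active GLP-1R. Conditions: 24 hr compound incubation, 37 deg C, 5% CO2.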
# % is set by controls: 0 for no effect and ±100 for the full control effect; potency is the fitted concentration of half-maximal effect; tags give direction and shape of the fitted curve.
Compound,Potency,"activity change, negative = inhibition"
COc1ccc(-c2nc3sc(CCNC(=O)c4ccc(Br)o4)c(C)n3n2)cc1,"inconclusive: 28.2 µM [inhibitor, single point]",
O=C(CN1C(=O)C2CCCCC2C1=O)Nc1ccc(OC(F)F)c(Cl)c1 (stereo not drawn),"inconclusive: 11.2 µM [inhibitor, single point]",
Nc1c2c(nc3ccc(Br)cc13)N(Cc1ccccc1)CC2,"inconclusive: 28.2 µM [inhibitor, single point]",
O=C(Nc1ccc(NC(=S)NC(=O)C(c2ccccc2)c2ccccc2)cc1)c1ccccc1,"inconclusive: 2 µM [inhibitor, full curve, poor fit]",
O=C(Nc1ccc(S(=O)(=O)Nc2nccs2)cc1)c1cc(-c2ccncc2)nc2ccccc12,inactive,
Cc1ccc(-n2nc(CN3CCOCC3)c(-c3ccccc3)c2N)cc1Cl,"inconclusive: 12.6 µM [inhibitor, single point]",
S=C(NCc1ccco1)N1CCN(c2ccc(Cl)cc2)CC1,"inconclusive: 12.6 µM [inhibitor, single point]",
CC(C)C[C@H]1COCCS(=O)(=O)N1Cc1ccc(Cl)c(Cl)c1,"inconclusive: 28.2 µM [inhibitor, single point]",
CN1CCN(C(=O)N2c3ccccc3C=Cc3ccccc32)CC1,"inconclusive: 8.91 µM [inhibitor, partial curve]",
Cc1ccc(Cl)cc1NC(=O)c1cc2ccccc2cc1O,"inconclusive: 2 µM [inhibitor, full curve, poor fit]",
C=C[C@@H]1c2cccc(C)c2N(S(=O)(=O)c2ccc(C)cc2)[C@H](c2ccc(OC(C)=O)cc2)C1(C#N)C#N,"inconclusive: 11.2 µM [inhibitor, partial curve, poor fit]",
OCCNC(=S)Nc1ccc(Cl)c(Cl)c1,inactive,
CCn1cc(/C=C(\NC(=O)c2cc(OC)c(OC)c(OC)c2)C(=O)NCCCn2ccnc2)c2ccccc21,inactive,
C=CCNc1oc(Cc2cccc3ccccc23)nc1C#N,"inconclusive: 10 µM [inhibitor, single point]",
CCc1ccc([C@@H]2CC=C(C(=O)O)[C@H](c3ccccc3)N2S(=O)(=O)c2ccc(C)cc2)cc1,inactive,
Cc1c(NC(=O)c2cccs2)cccc1-c1nc2ccccc2s1,"inconclusive: 5.01 µM [inhibitor, partial curve]",
O=C(Cn1ncc2c1-c1ccccc1OC2)N1CCN(Cc2ccccc2)CC1,"inconclusive: 11.2 µM [inhibitor, single point]",
Cc1cc(OCC(=O)NC(C)C)cc(C)c1Cl,"inconclusive: 10 µM [inhibitor, partial curve, poor fit]",
CC(NC(=O)CSc1nc2c(c(C(F)(F)F)n1)CCc1ccccc1-2)c1ccccc1 (stereo not drawn),"inconclusive: 0.501 µM [inhibitor, full curve, poor fit]",
O=C(CSc1n[nH]c(-c2ccc(Br)cc2)n1)NC1CCCC1,"inconclusive: 7.94 µM [inhibitor, partial curve, poor fit]",
Cc1ccc(S(=O)(=O)N2CCN(C(=O)CC(C)n3nc(C)c(Cl)c3C)CC2)cc1 (stereo not drawn),"inconclusive: 11.2 µM [inhibitor, single point]",

Compound,Potency,"activity change, negative = inhibition"
COc1ccc(CN2CCNC(=O)C2CC(=O)N(C)C2CCCCC2)cc1OC (stereo not drawn),inactive,
O=C(CSc1nnc(-c2ccccc2)c(-c2ccccc2)n1)N1CCOCC1,"inconclusive: 14.1 µM [inhibitor, single point]",
CN(CC(=O)Nc1ccc(F)cc1)C(=O)COC(=O)Cc1c(F)cccc1Cl,"inconclusive: 12.6 µM [inhibitor, partial curve, poor fit]",
COc1ccc(NC(=O)CSc2ccccc2)c([N+](=O)[O-])c1,"inconclusive: 28.2 µM [inhibitor, single point]",
Cc1ccccc1-c1noc(-c2ccccc2OCC(=O)Nc2cccc([N+](=O)[O-])c2)n1,inactive,
COc1ccc(-c2noc(CCC(=O)NCCN(C)Cc3ccccc3)n2)cc1,"inconclusive: 8.91 µM [inhibitor, partial curve, poor fit]",
CCc1c(C)sc(NC(=O)c2ccc(Br)o2)c1C(=O)OC,"inconclusive: 28.2 µM [inhibitor, single point]",
O=C(COc1ccccc1Br)N1CCN(C(=O)c2ccco2)CC1,"inconclusive: 0.794 µM [inhibitor, full curve, poor fit]",
Cc1cc(/C=C2\SC(=S)N(Cc3ccco3)C2=O)c(C)n1-c1cccnc1,inactive,
CC(C)c1ccc(S(=O)(=O)N2CCC(C(=O)NCC3(N(C)C)CCCCC3)CC2)cc1,"inconclusive: 12.6 µM [inhibitor, partial curve, poor fit]",
COc1ccc2c(Cn3cnc4cc([N+](=O)[O-])ccc4c3=O)cc(=O)oc2c1,"inconclusive: 5.62 µM [inhibitor, partial curve, poor fit]",
CCOC(=O)C1(CC2CC2)CCN(Cc2cn(C)c3ccccc23)CC1,"inconclusive: 10 µM [inhibitor, partial curve, poor fit]",
COc1cc(C(=O)Nc2cccc(-c3nnc(-c4ccco4)o3)c2)ccc1OC(C)=O,"inconclusive: 28.2 µM [inhibitor, single point]",
Cc1cccc(NC(=O)C2CCCN(C(=O)Nc3ccc(F)cc3)C2)c1 (stereo not drawn),"inconclusive: 10 µM [inhibitor, partial curve, poor fit]",
O=S(=O)(N/N=C/c1ccc2c(c1)OCCO2)c1ccc(Cl)cc1,"inconclusive: 28.2 µM [inhibitor, single point]",
CN1CCN(c2ccc(CNC(=O)C3Cc4c(-c5ccc(Cl)cc5)ccnc4O3)cc2)CC1 (stereo not drawn),"inconclusive: 5.01 µM [inhibitor, full curve]",
CCOc1ccccc1CNCCCSc1nnnn1C,"inconclusive: 28.2 µM [inhibitor, single point]",
CN(C(=O)c1cccc(NC(=O)C2CCCN(C(=O)OC(C)(C)C)C2)c1)C1CCCC1 (stereo not drawn),"inconclusive: 31.6 µM [inhibitor, single point]",
C[C@H](O)CNC(=O)c1[nH]cnc1C(=O)Nc1ccc(CNC(=O)OC(C)(C)C)cc1,inactive,
Cc1ccc(CSc2cn(CC(=O)N3CCCCCC3)c3ccccc23)cc1,active: 10 µM,
Cc1cc(CN(C)C(=O)c2cc(COc3ccc(C)c(C)c3)on2)on1,"inconclusive: 10 µM [inhibitor, partial curve, poor fit]",

Compound,Potency,"activity change, negative = inhibition"
CC(NS(=O)(=O)c1ccc(Cl)cc1)C(c1cccs1)N1CCN(C)CC1 (stereo not drawn),"inconclusive: 28.2 µM [inhibitor, single point]",
O=C(/C=C/c1ccc(OCCCF)cc1)NCc1ccc(Cl)cc1,inactive,
CCCCSc1nc2c([nH]1)c(=S)n(C)c(=O)n2C,"inconclusive: 0.562 µM [inhibitor, full curve, poor fit]",
O=C(NC1CC1)c1ccc2c(c1)N(Cc1ccccc1)CCS2,active: 8.91 µM,
CCOc1ccc(-n2ccnc2SCC(=O)N2CCCc3ccccc32)cc1,"inconclusive: 28.2 µM [inhibitor, single point]",
O=C(/C=C\c1cn(-c2ccccc2)nc1-c1cccs1)N1CCOCC1,"inconclusive: 2.51 µM [inhibitor, partial curve, poor fit]",
CCOc1ccc(NS(=O)(=O)c2ccc(NS(C)(=O)=O)cc2)cc1,inactive,
Clc1cnc(N/N=C/c2cccs2)c(Cl)c1,"inconclusive: 22.4 µM [inhibitor, single point]",
CC1CCN(S(=O)(=O)c2ccc(NC(=O)CNC3CCCCC3)cc2)CC1,"inconclusive: 28.2 µM [inhibitor, single point]",
Clc1ccc(-c2ccc(C=Nc3ccc(N4CCOCC4)cc3)o2)c(Cl)c1,"inconclusive: 0.501 µM [inhibitor, full curve, poor fit]",
O=C(CNC(=O)c1n[nH]c2ccccc12)Nc1cc(Cl)ccc1Cl,"inconclusive: 31.6 µM [inhibitor, single point]",
CC(C)(C)C(=O)NCCc1nc2ccccc2n1CCCCOc1ccccc1,"inconclusive: 10 µM [inhibitor, partial curve, poor fit]",
CN(CC(=O)Nc1ccc(C#N)cc1)Cc1ccc(Cl)cc1,"inconclusive: 28.2 µM [inhibitor, single point]",
Cc1ccc(N(CC(=O)N2CCN(c3ccc(F)cc3)CC2)S(=O)(=O)c2c(C)noc2C)cc1,"inconclusive: 15.8 µM [inhibitor, single point] and inconclusive: 14.1 µM [inhibitor, single point]",
COc1ccc(-n2nc3c(N4CCC(C(=O)NCc5ccccc5C)CC4)nnc(C)c3c2C)cc1,"inconclusive: 28.2 µM [inhibitor, single point]",
CCNCC(=O)N1c2ccccc2CCc2ccc(NC(=O)OCC)cc21,,inconclusive: -48.6% [inhibitor]
Cc1cc2ncc(-c3ccccc3)nc2cc1C,inactive,
CCOC(=O)c1ccc(NC(=O)CSc2nc3c(c(=O)[nH]2)CN(Cc2ccccc2)CC3)cc1,inactive,
Cc1ccc2c(=O)c(C(=O)c3cccc(Cl)c3)cn(CC(=O)NC3CCCCC3)c2n1,inactive,
O=C(NCc1nc2ccccc2[nH]1)C1=C[C@@H](c2ccc(Br)cc2)C[C@@H](OCc2ccc(CO)cc2)O1,"inconclusive: 28.2 µM [inhibitor, single point]",
O=C(NC1CCCCCC1)c1cc2ccccc2oc1=O,"inconclusive: 28.2 µM [inhibitor, single point]",
